± gives the standard deviation of the averaged measurements. Restriction of a single-cycle SIVsab GFP reporter by TRIM5α v1-loop variants in CRFK cells. Human variants: read share among cells still uninfected after two challenges over input, higher = gained restriction. Rhesus variants: share among infected cells over input, higher = lost restriction. Reporter dose not given per row. No active / inactive call per row; the paper calls a change when both replicates lie above its controls (mean + 2 SD of stop or wild-type variants, or the top frameshift score). Residues outside the varied loop are taken from Swiss-Prot. The paper reads the human single-substitution scores as noise; they and the rhesus combinations repeat poorly (rank correlation 0.3 to 0.4), indel scores repeat only for the top variants, rhesus substitutions well (0.9).

For this data set, the system named is SIVsab (simian immunodeficiency virus of sabaeus monkeys), single-cycle GFP reporter, in CRFK cells. The data set can be described thus: enrichment among infected cells over input (fold); higher = weaker restriction. As to conditions: library: human / rhesus combinations. As to the method: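 Pools of CRFK cells expressing variants of the TRIM5α v1 loop were challenged with the single-cycle reporter, sorted by GFP and sequenced; mean of two replicates.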
With “MASGILLNVKEEVTCPICLELLTEPLSLHCGHSFCQACITANHKKSMLYKEGERSCPVCRISYQPENIQPNRHVANIVEKLREVKLSPEEGQKVDHCARHGEKLLLFCQEDSKVICWLCERSQEHRGHHTFLMEEVAQEYHVKLQTALEMLRQKQQEAEKLEADIREEKASWKIQIDYDKTNVSADFEQLREILDWEESNELQNLEKEEEDILKSLTKSETEMVQQTQYMRELISELEHRLQGSMMDLLQGVDGIIKRIENMTLKKPKTFHKNQRRVFRAPDLKGMLDMFRELTDARRYWVDVTLAPNNISHAVIAEDKRQVSSRNPQIMYQARGTLFTFPTFTNFNYCTGVLGSQSITSGKHYWEVDVSKKSAWILGVCAGFQSDAMYNIEQNENYQPKYGYWVIGLQEGVKYSVFQDGSSHTPFAPFIVPLSVIICPDRVGVFVDYEACTVSFFNITNHGFLIYKFSQCSFSKPVFPYLNPRKCTVPMTLCSPSS [rhesus TRIM5α, 332-344 = QARGTLFTFPTFT]”, the enrichment was determined as 0.099 ± 0.089. With “MASGILLNVKEEVTCPICLELLTEPLSLHCGHSFCQACITANHKKSMLYKEGERSCPVCRISYQPENIQPNRHVANIVEKLREVKLSPEEGQKVDHCARHGEKLLLFCQEDSKVICWLCERSQEHRGHHTFLMEEVAQEYHVKLQTALEMLRQKQQEAEKLEADIREEKASWKIQIDYDKTNVSADFEQLREILDWEESNELQNLEKEEEDILKSLTKSETEMVQQTQYMRELISELEHRLQGSMMDLLQGVDGIIKRIENMTLKKPKTFHKNQRRVFRAPDLKGMLDMFRELTDARRYWVDVTLAPNNISHAVIAEDKRQVSSRNPQIMYQARGTLFTFPTFVNFNYCTGVLGSQSITSGKHYWEVDVSKKSAWILGVCAGFQSDAMYNIEQNENYQPKYGYWVIGLQEGVKYSVFQDGSSHTPFAPFIVPLSVIICPDRVGVFVDYEACTVSFFNITNHGFLIYKFSQCSFSKPVFPYLNPRKCTVPMTLCSPSS [rhesus TRIM5α, 332-344 = QARGTLFTFPTFV]”, the enrichment turned out to be 0.207 ± 0.11.

Turning to “MASGILLNVKEEVTCPICLELLTEPLSLHCGHSFCQACITANHKKSMLYKEGERSCPVCRISYQPENIQPNRHVANIVEKLREVKLSPEEGQKVDHCARHGEKLLLFCQEDSKVICWLCERSQEHRGHHTFLMEEVAQEYHVKLQTALEMLRQKQQEAEKLEADIREEKASWKIQIDYDKTNVSADFEQLREILDWEESNELQNLEKEEEDILKSLTKSETEMVQQTQYMRELISELEHRLQGSMMDLLQGVDGIIKRIENMTLKKPKTFHKNQRRVFRAPDLKGMLDMFRELTDARRYWVDVTLAPNNISHAVIAEDKRQVSSRNPQIMYQARGTLFTFPTLVNFNYCTGVLGSQSITSGKHYWEVDVSKKSAWILGVCAGFQSDAMYNIEQNENYQPKYGYWVIGLQEGVKYSVFQDGSSHTPFAPFIVPLSVIICPDRVGVFVDYEACTVSFFNITNHGFLIYKFSQCSFSKPVFPYLNPRKCTVPMTLCSPSS [rhesus TRIM5α, 332-344 = QARGTLFTFPTLV]”, the enrichment stood at 0.647 ± 0.54. The result for “MASGILLNVKEEVTCPICLELLTEPLSLHCGHSFCQACITANHKKSMLYKEGERSCPVCRISYQPENIQPNRHVANIVEKLREVKLSPEEGQKVDHCARHGEKLLLFCQEDSKVICWLCERSQEHRGHHTFLMEEVAQEYHVKLQTALEMLRQKQQEAEKLEADIREEKASWKIQIDYDKTNVSADFEQLREILDWEESNELQNLEKEEEDILKSLTKSETEMVQQTQYMRELISELEHRLQGSMMDLLQGVDGIIKRIENMTLKKPKTFHKNQRRVFRAPDLKGMLDMFRELTDARRYWVDVTLAPNNISHAVIAEDKRQVSSRNPQIMYQARGTLFTFQSFTNFNYCTGVLGSQSITSGKHYWEVDVSKKSAWILGVCAGFQSDAMYNIEQNENYQPKYGYWVIGLQEGVKYSVFQDGSSHTPFAPFIVPLSVIICPDRVGVFVDYEACTVSFFNITNHGFLIYKFSQCSFSKPVFPYLNPRKCTVPMTLCSPSS [rhesus TRIM5α, 332-344 = QARGTLFTFQSFT]” reads 0.951 ± 0.036. The result for “MASGILLNVKEEVTCPICLELLTEPLSLHCGHSFCQACITANHKKSMLYKEGERSCPVCRISYQPENIQPNRHVANIVEKLREVKLSPEEGQKVDHCARHGEKLLLFCQEDSKVICWLCERSQEHRGHHTFLMEEVAQEYHVKLQTALEMLRQKQQEAEKLEADIREEKASWKIQIDYDKTNVSADFEQLREILDWEESNELQNLEKEEEDILKSLTKSETEMVQQTQYMRELISELEHRLQGSMMDLLQGVDGIIKRIENMTLKKPKTFHKNQRRVFRAPDLKGMLDMFRELTDARRYWVDVTLAPNNISHAVIAEDKRQVSSRNPQIMYQARGTLFTFQSFVNFNYCTGVLGSQSITSGKHYWEVDVSKKSAWILGVCAGFQSDAMYNIEQNENYQPKYGYWVIGLQEGVKYSVFQDGSSHTPFAPFIVPLSVIICPDRVGVFVDYEACTVSFFNITNHGFLIYKFSQCSFSKPVFPYLNPRKCTVPMTLCSPSS [rhesus TRIM5α, 332-344 = QARGTLFTFQSFV]” reads 0.924 ± 0.058; that for “MASGILLNVKEEVTCPICLELLTEPLSLHCGHSFCQACITANHKKSMLYKEGERSCPVCRISYQPENIQPNRHVANIVEKLREVKLSPEEGQKVDHCARHGEKLLLFCQEDSKVICWLCERSQEHRGHHTFLMEEVAQEYHVKLQTALEMLRQKQQEAEKLEADIREEKASWKIQIDYDKTNVSADFEQLREILDWEESNELQNLEKEEEDILKSLTKSETEMVQQTQYMRELISELEHRLQGSMMDLLQGVDGIIKRIENMTLKKPKTFHKNQRRVFRAPDLKGMLDMFRELTDARRYWVDVTLAPNNISHAVIAEDKRQVSSRNPQIMYQARGTLFTFQSLVNFNYCTGVLGSQSITSGKHYWEVDVSKKSAWILGVCAGFQSDAMYNIEQNENYQPKYGYWVIGLQEGVKYSVFQDGSSHTPFAPFIVPLSVIICPDRVGVFVDYEACTVSFFNITNHGFLIYKFSQCSFSKPVFPYLNPRKCTVPMTLCSPSS [rhesus TRIM5α, 332-344 = QARGTLFTFQSLV]”, 1.47 ± 0.3. “MASGILLNVKEEVTCPICLELLTEPLSLHCGHSFCQACITANHKKSMLYKEGERSCPVCRISYQPENIQPNRHVANIVEKLREVKLSPEEGQKVDHCARHGEKLLLFCQEDSKVICWLCERSQEHRGHHTFLMEEVAQEYHVKLQTALEMLRQKQQEAEKLEADIREEKASWKIQIDYDKTNVSADFEQLREILDWEESNELQNLEKEEEDILKSLTKSETEMVQQTQYMRELISELEHRLQGSMMDLLQGVDGIIKRIENMTLKKPKTFHKNQRRVFRAPDLKGMLDMFRELTDARRYWVDVTLAPNNISHAVIAEDKRQVSSRNPQIMYQARGTLFTFQTFTNFNYCTGVLGSQSITSGKHYWEVDVSKKSAWILGVCAGFQSDAMYNIEQNENYQPKYGYWVIGLQEGVKYSVFQDGSSHTPFAPFIVPLSVIICPDRVGVFVDYEACTVSFFNITNHGFLIYKFSQCSFSKPVFPYLNPRKCTVPMTLCSPSS [rhesus TRIM5α, 332-344 = QARGTLFTFQTFT]”: the enrichment turned out to be 1.75 ± 0.96. As for “MASGILLNVKEEVTCPICLELLTEPLSLHCGHSFCQACITANHKKSMLYKEGERSCPVCRISYQPENIQPNRHVANIVEKLREVKLSPEEGQKVDHCARHGEKLLLFCQEDSKVICWLCERSQEHRGHHTFLMEEVAQEYHVKLQTALEMLRQKQQEAEKLEADIREEKASWKIQIDYDKTNVSADFEQLREILDWEESNELQNLEKEEEDILKSLTKSETEMVQQTQYMRELISELEHRLQGSMMDLLQGVDGIIKRIENMTLKKPKTFHKNQRRVFRAPDLKGMLDMFRELTDARRYWVDVTLAPNNISHAVIAEDKRQVSSRNPQIMYQARGTLFTFQTFVNFNYCTGVLGSQSITSGKHYWEVDVSKKSAWILGVCAGFQSDAMYNIEQNENYQPKYGYWVIGLQEGVKYSVFQDGSSHTPFAPFIVPLSVIICPDRVGVFVDYEACTVSFFNITNHGFLIYKFSQCSFSKPVFPYLNPRKCTVPMTLCSPSS [rhesus TRIM5α, 332-344 = QARGTLFTFQTFV]”, the figure is 1.03 ± 0.39; as for “MASGILLNVKEEVTCPICLELLTEPLSLHCGHSFCQACITANHKKSMLYKEGERSCPVCRISYQPENIQPNRHVANIVEKLREVKLSPEEGQKVDHCARHGEKLLLFCQEDSKVICWLCERSQEHRGHHTFLMEEVAQEYHVKLQTALEMLRQKQQEAEKLEADIREEKASWKIQIDYDKTNVSADFEQLREILDWEESNELQNLEKEEEDILKSLTKSETEMVQQTQYMRELISELEHRLQGSMMDLLQGVDGIIKRIENMTLKKPKTFHKNQRRVFRAPDLKGMLDMFRELTDARRYWVDVTLAPNNISHAVIAEDKRQVSSRNPQIMYQARGTLFTFQTLTNFNYCTGVLGSQSITSGKHYWEVDVSKKSAWILGVCAGFQSDAMYNIEQNENYQPKYGYWVIGLQEGVKYSVFQDGSSHTPFAPFIVPLSVIICPDRVGVFVDYEACTVSFFNITNHGFLIYKFSQCSFSKPVFPYLNPRKCTVPMTLCSPSS [rhesus TRIM5α, 332-344 = QARGTLFTFQTLT]”, 1.31 ± 0.7. The result for “MASGILLNVKEEVTCPICLELLTEPLSLHCGHSFCQACITANHKKSMLYKEGERSCPVCRISYQPENIQPNRHVANIVEKLREVKLSPEEGQKVDHCARHGEKLLLFCQEDSKVICWLCERSQEHRGHHTFLMEEVAQEYHVKLQTALEMLRQKQQEAEKLEADIREEKASWKIQIDYDKTNVSADFEQLREILDWEESNELQNLEKEEEDILKSLTKSETEMVQQTQYMRELISELEHRLQGSMMDLLQGVDGIIKRIENMTLKKPKTFHKNQRRVFRAPDLKGMLDMFRELTDARRYWVDVTLAPNNISHAVIAEDKRQVSSRNPQIMYQARGTLFTFQTLVNFNYCTGVLGSQSITSGKHYWEVDVSKKSAWILGVCAGFQSDAMYNIEQNENYQPKYGYWVIGLQEGVKYSVFQDGSSHTPFAPFIVPLSVIICPDRVGVFVDYEACTVSFFNITNHGFLIYKFSQCSFSKPVFPYLNPRKCTVPMTLCSPSS [rhesus TRIM5α, 332-344 = QARGTLFTFQTLV]” reads 1.17 ± 0.54; that for “MASGILLNVKEEVTCPICLELLTEPLSLHCGHSFCQACITANHKKSMLYKEGERSCPVCRISYQPENIQPNRHVANIVEKLREVKLSPEEGQKVDHCARHGEKLLLFCQEDSKVICWLCERSQEHRGHHTFLMEEVAQEYHVKLQTALEMLRQKQQEAEKLEADIREEKASWKIQIDYDKTNVSADFEQLREILDWEESNELQNLEKEEEDILKSLTKSETEMVQQTQYMRELISELEHRLQGSMMDLLQGVDGIIKRIENMTLKKPKTFHKNQRRVFRAPDLKGMLDMFRELTDARRYWVDVTLAPNNISHAVIAEDKRQVSSRNPQIMYQARGTLYPSLTNFNYCTGVLGSQSITSGKHYWEVDVSKKSAWILGVCAGFQSDAMYNIEQNENYQPKYGYWVIGLQEGVKYSVFQDGSSHTPFAPFIVPLSVIICPDRVGVFVDYEACTVSFFNITNHGFLIYKFSQCSFSKPVFPYLNPRKCTVPMTLCSPSS [rhesus TRIM5α, 332-344 = QARGTLYPSLT]”, 2.61 ± 3.7; that for “MASGILLNVKEEVTCPICLELLTEPLSLHCGHSFCQACITANHKKSMLYKEGERSCPVCRISYQPENIQPNRHVANIVEKLREVKLSPEEGQKVDHCARHGEKLLLFCQEDSKVICWLCERSQEHRGHHTFLMEEVAQEYHVKLQTALEMLRQKQQEAEKLEADIREEKASWKIQIDYDKTNVSADFEQLREILDWEESNELQNLEKEEEDILKSLTKSETEMVQQTQYMRELISELEHRLQGSMMDLLQGVDGIIKRIENMTLKKPKTFHKNQRRVFRAPDLKGMLDMFRELTDARRYWVDVTLAPNNISHAVIAEDKRQVSSRNPQIMYQARGTLYQSLTNFNYCTGVLGSQSITSGKHYWEVDVSKKSAWILGVCAGFQSDAMYNIEQNENYQPKYGYWVIGLQEGVKYSVFQDGSSHTPFAPFIVPLSVIICPDRVGVFVDYEACTVSFFNITNHGFLIYKFSQCSFSKPVFPYLNPRKCTVPMTLCSPSS [rhesus TRIM5α, 332-344 = QARGTLYQSLT]”, 0.225 ± 0.13.
